Experimental data published in the supplement of paper PMC11417369.
± gives the standard deviation of the averaged measurements. Some of the results follow.

Test system: PfAP2-I AP2 domain 3 (GST-tagged)
Test: gcPBM binding intensity (ln(normalized median fluorescence intensity)); higher = stronger DNA binding
Summary of the method: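 Probes on an Agilent 4 × 180k array were primer-extended, double-stranded and 36 bp long, taken from intergenic genomic regions, with negative controls added. GST-tagged P. falciparum DNA-binding domains from E. coli, about 25 μg on average, were applied to the array for 1 h in 1× PBS containing 1% milk, 0.2 mg/ml BSA, 0.5% salmon testes DNA and 0.03% Triton X-100. Binding intensity, obtained after Alexa488 anti-GST antibody detection and a 488 nm scan, is the highest Masliner-normalised natural-log median intensity across replicate spots of either probe orientation.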

Sequence | gcPBM binding intensity (ln)
ATTTTAAATATGGAATGTACTTAAAAAAAATTTCAT [XGTACX_site5058] | 7.78 ± 0.56
ATTTCTTATTAAATTACACACAAAGTAAATAAATCT [CACACA_site3924] | 7.67 ± 0.46
AATTAAATATTATAAACACACATATAGATTATTTTT [CACACA_site6538] | 7.49 ± 0.44
AAATACATAACTTAAAATTTGTTCATATCTATACAT [TGCATGCA_negctrl_site249] | 7.56 ± 0.71
TATAATAATATGGATTGTACATATATATTTAATTAA [XGTACX_site4327] | 7.57 ± 0.45
TTTTCCTTTTTTTTTACATGCAGATATAGAAAGGTA [TGCATGCA_site106] | 7.96 ± 0.49
TTGTTTTGGATTATCACACATATAATATATACTCAT [CACACA_site4780] | 7.82 ± 0.68
GTAATTTTTTTCTATACACACATATCTATAATATAT [CACACA_site7284] | 8.09 ± 0.6
TACTTATAATTTCAATGTACATATATATAATATCAT [XGTACX_site2424] | 7.72 ± 0.34
TATCACATATTATGATGTACAAGGTTTCTGACTAAT [XGTACX_site2763] | 7.63 ± 0.51
TTTTTATACAACTTATAATACATCTGAAAATATAAA [XGTACX_negctrl_site36] | 7.7 ± 0.2
TTGTCTGACTAATTTTTTTCTGTTTGTACGTTCTTA [GTGCAC_negctrl_site602] | 7.87 ± 0.6
ACAAAATAAATATGAACACACACATTTATGCCTTTA [CACACA_site8346] | 7.55 ± 0.71
ATAATTATACATATTACACACTCTCTTGATCTTTTT [CACACA_site3853] | 7.92 ± 0.64
CATATATAAAAAAACACACACATATTTATATTTATA [CACACA_site6682] | 7.57 ± 0.34
AAAAAAATTTATAAATATTTTATTAATATATTTACC [GTGCAC_negctrl_site690] | 7.61 ± 0.42
CATATTTCTTACATTTGTACTTAATAAAATTAATCA [XGTACX_site7224] | 7.92 ± 0.28
ACACAAAACAAAAAGGTGCTGTATAAATGGGTGTAT [GTGCAC_site9905] | 10.3 ± 0.028
AAAATTAATAAATAAACACACATATTTATATTTATA [CACACA_site7266] | 7.3 ± 0.56
TATAAATATAGACACACACACACACCGAAGCGTAGC [CACACA_site6180] | 7.79 ± 0.64
TCGTCACTTTAATATTGTACATATATATATATATAT [XGTACX_site8046] | 9.19 ± 0.45
GATATATATATTCACACACACATGGAAATATATATA [CACACA_site382] | 7.97 ± 0.7
ATATATATATGTGCCAGTACACATGTATACATTATA [XGTACX_site3899] | 9.03 ± 0.11

Sequence | gcPBM binding intensity (ln)
AATAATTATTTGTATAGTACAATATACAAAAGATGA [XGTACX_site4312] | 7.76 ± 0.46
AAAATTTAAAAATGGACACACACAAAAAATAATACT [CACACA_site7972] | 8.19 ± 0.76
AACTTTTTACAAACAGGTACGCATATATATATATAT [XGTACX_site5081] | 9.29 ± 0.32
CATCCATTATTAATATGTACATATGTATATATATTA [XGTACX_site1318] | 7.75 ± 0.38
CACATACACATACAAACACACATTATATATATATAT [CACACA_site8460] | 9.42 ± 0.52
TTTTTTTTTTTTTTTTTTTTTTTCTTTATTTTTTTT [CACACA_negctrl_site703] | 8.11 ± 0.85
GAAAAAAAAAAAAGGGGTACATTTATTTTATCAATA [XGTACX_site8331] | 7.63 ± 0.56
AATATTGTTCACAAGGTGCTTTTTATTCATACTAAT | 8.86 ± 0.18
TATGTATAACTCAATGCATGCGAAGGACTATTATTT [TGCATGCA_site222] | 7.87 ± 0.86
ACCTCACAAATGAATACACACAAACATATAGATTTA [CACACA_site6862] | 7.92 ± 0.37
ATATATAAAATTATATGTACATATATCTATTTATAA [XGTACX_site3713] | 7.79 ± 0.39
GATTAAAACTTTAACTGTACATAATAATTATCAATC [XGTACX_site5938] | 7.76 ± 0.42
TTTAAAATTTCTTAATGTACGTAATAAAAAAAAAAA [XGTACX_site4037] | 8.02 ± 0.54
TATATGTATTTATATACACACATATTCTTTTTACAC [CACACA_site8320] | 7.81 ± 0.26
AATATTTTGAACAACAGTACTCTTTCTTTCTTTCTT [XGTACX_site7212] | 7.59 ± 0.79
TCCTTTTCATCTTGTAGTACGGAAATGTAGCTCCAA [XGTACX_site8563] | 7.75 ± 0.63
TATATCTACTTAAAAAGTACGTAAATTATAAGCTAT [XGTACX_site6420] | 7.43 ± 0.45
TGTGTAAATATGTATACACACATATCTGATCAATAT [CACACA_site7507] | 7.87 ± 0.34
CCTTTTTTATTTACAACACACGTAAAGGTTCAAATA [CACACA_site1741] | 8.28 ± 0.59
GTAAATATTAATAAAAGTACATATGTAGCATATGGA [XGTACX_site5219] | 7.76 ± 0.57
AAAAAACACAGACATACACACAAAAAGGTTATAAAT [CACACA_site4222] | 7.86 ± 0.69
AGAAAAAAAAAAAATGCACACATTTTCATTGTCAGT [CACACA_site1935] | 8.51 ± 0.18
ATATATATATATATGTGTACATATTTTTTTTTTTTT [XGTACX_site3425] | 9.38 ± 0.19

Sequence | gcPBM binding intensity (ln)
TTAAACATATATTAAGCACACACAAACAAAAAAACA [CACACA_site8816] | 8.935 ± 0.035
TAATTAATCGATTTACGCACATGAACAAAAGCACAT [CACACA_negctrl_site1287] | 9.45 ± 0.13
AACATATTTTTTTGTTGTACTTACAATTATAAGCAT [XGTACX_site3056] | 7.72 ± 0.54
TATACCAAATATATGGGTACACAAATATGTTTATTC [XGTACX_site8932] | 7.7 ± 0.33
TATAAAGCAACTGAAACACACAAATTTTTTTTTTTT [CACACA_site3218] | 7.68 ± 0.31
ATTATTTATTTATGTGTGCGCATGTGTGTAAATATT | 8.95 ± 0.22
ACTATTTTCTTCAAAACATGCACCACATAAACATAA [TGCATGCA_site200] | 9.75 ± 0.23
TAAACACCCATATAAACACACATATAAACACCCATA [CACACA_site5382] | 8.08 ± 0.28
TTTATTTATTTTTAACGTACGCACACATATAAATAT [XGTACX_site4042] | 8.43 ± 0.49
TATTATAAAATATACACATGCAAAAACAAAATTTAC [TGCATGCA_site1051] | 8.06 ± 0.67
TATTTTTAATAAAAACGTACGGAATACAAAAAAAAT [XGTACX_site3477] | 8.17 ± 0.61
TAAAATTTATAAACTACACACATATAAATAGTAATA [CACACA_site7708] | 7.56 ± 0.57
TATATACATTGGTATACATGCATTCTCTTTCATACA [TGCATGCA_site734] | 7.89 ± 0.71
ACAGAAAAAAGACACACACACATAATATACATACAT [CACACA_site6991] | 7.96 ± 0.56
TATATATATATATATACACACACACTAATAAAAAAA [CACACA_site8426] | 9.44 ± 0.22
CTTAGATATAAAAATTGTACATACATATTTTTGACA [XGTACX_site2107] | 7.71 ± 0.3
ATTTTTTAAATGAGGCGTACACAAAAATATAATTAC [XGTACX_site7087] | 8.74 ± 0.071
TTTTTTTCGTAAAAAAAAATAATTATTAAATGAAGG [TGCATGCA_negctrl_site212] | 7.86 ± 0.49
AAGAATATATAGGACACACATACAATAATAAATATA [CACACA_site4119] | 7.84 ± 0.34
TATCCTACATTAACAAGTACAAAGAGATCCTACGTA [XGTACX_site4252] | 7.55 ± 0.33
TTTCTCCATATTAAAGTGCATTAATAACAAAAATAA [GTGCAC_site9934] | 11.4 ± 0.81
AACGCCACTTCAATGGCACACACCAATTATTTTTCA [CACACA_site1026] | 8.13 ± 0.52
TCATTCGAATAAATTGCACACATGACATCCGTTGTA [CACACA_site2587] | 8.71 ± 0.34

Sequence | gcPBM binding intensity (ln)
AAAAAAAAAAAAAATATACACACTAATATATTTTTT [CACACA_site815] | 7.98 ± 0.54
ATATATATATTAATTACACACAAAAAAAAAAAAAAA [CACACA_site1165] | 8.59 ± 0.057
TATTAATAATATAATAGTACTTTCACTGTAAATTTA [XGTACX_site6419] | 7.62 ± 0.49
TATATACAGATATATACACACATATTTATATTTTAT [CACACA_site7734] | 7.68 ± 0.35
GTATAGAGAAAAAACTGTACTTTATATAAATATTTA [XGTACX_site3972] | 7.53 ± 0.3
ATATATATAAAATAAAGTACCCGTAAAACCTATATG [XGTACX_site6937] | 8.12 ± 0.54
AAAAAAAAAAAAAAAAAATAATAAAAAATAAAAAAA [GTGCAC_negctrl_site341] | 8.67 ± 0.31
TAATTATAAAAATAAAACAACCAAATTTGTTATATA [CACACA_negctrl_site750] | 7.24 ± 0.5
TAATTTATAAATAATTGTACATAGTTTATTTAGATT [XGTACX_site4599] | 7.5 ± 0.5
GAAAGGAAAAGTTGAACACACAAAGTAAACTATAAG [CACACA_site3535] | 7.63 ± 0.78
TATGTTAATCCTATTTGTACATATAATCGAATTAAA [XGTACX_site7090] | 7.42 ± 0.24
GACGACTATATTAATTGTACTCAATTTAAGCATAAT [XGTACX_site2750] | 7.78 ± 0.44
GCCATTAATTTATACACACACATTAAAATTTTTTAT [CACACA_site4575] | 8.3 ± 0.35
TAATGAAGATATATAACACACAAAAGTTATAAATAT [CACACA_site6678] | 7.68 ± 0.64
ATATATAATAATATATGTACATAATATTTTTTTTTT [XGTACX_site1941] | 7.63 ± 0.28
GCTATAAATACAGACGCACACATATACATACATATA [CACACA_site3329] | 8.38 ± 0.41
TTAAAATTAAAAATAGGTACACATATGAACAAGGAC [XGTACX_site1180] | 8.8 ± 0.49
TTATATGATATATGACGTACATATTAATAACATCTA [XGTACX_site6716] | 7.87 ± 0.25
TGTAATATTTTATAAAGTACATTATAATATAATTCA [XGTACX_site2961] | 7.48 ± 0.27
AGATTGAAATATAGTTGTACAAATATTTTAAAACAT [XGTACX_site3026] | 7.89 ± 0.61
